Here are results for 92 compounds from publication PMC4336329 (PLoS ONE, 2015).

The structures appear in SMILES notation. The campaign covered roughly 310,000 compounds. About 2,200 (0.71%) showed an effect of 50% or more. The effect is printed as a negative number. This is one part of the list.

Chain of human ether-à-go-go-related gene (hERG) potassium channel (Q12809 whole entry, looked up): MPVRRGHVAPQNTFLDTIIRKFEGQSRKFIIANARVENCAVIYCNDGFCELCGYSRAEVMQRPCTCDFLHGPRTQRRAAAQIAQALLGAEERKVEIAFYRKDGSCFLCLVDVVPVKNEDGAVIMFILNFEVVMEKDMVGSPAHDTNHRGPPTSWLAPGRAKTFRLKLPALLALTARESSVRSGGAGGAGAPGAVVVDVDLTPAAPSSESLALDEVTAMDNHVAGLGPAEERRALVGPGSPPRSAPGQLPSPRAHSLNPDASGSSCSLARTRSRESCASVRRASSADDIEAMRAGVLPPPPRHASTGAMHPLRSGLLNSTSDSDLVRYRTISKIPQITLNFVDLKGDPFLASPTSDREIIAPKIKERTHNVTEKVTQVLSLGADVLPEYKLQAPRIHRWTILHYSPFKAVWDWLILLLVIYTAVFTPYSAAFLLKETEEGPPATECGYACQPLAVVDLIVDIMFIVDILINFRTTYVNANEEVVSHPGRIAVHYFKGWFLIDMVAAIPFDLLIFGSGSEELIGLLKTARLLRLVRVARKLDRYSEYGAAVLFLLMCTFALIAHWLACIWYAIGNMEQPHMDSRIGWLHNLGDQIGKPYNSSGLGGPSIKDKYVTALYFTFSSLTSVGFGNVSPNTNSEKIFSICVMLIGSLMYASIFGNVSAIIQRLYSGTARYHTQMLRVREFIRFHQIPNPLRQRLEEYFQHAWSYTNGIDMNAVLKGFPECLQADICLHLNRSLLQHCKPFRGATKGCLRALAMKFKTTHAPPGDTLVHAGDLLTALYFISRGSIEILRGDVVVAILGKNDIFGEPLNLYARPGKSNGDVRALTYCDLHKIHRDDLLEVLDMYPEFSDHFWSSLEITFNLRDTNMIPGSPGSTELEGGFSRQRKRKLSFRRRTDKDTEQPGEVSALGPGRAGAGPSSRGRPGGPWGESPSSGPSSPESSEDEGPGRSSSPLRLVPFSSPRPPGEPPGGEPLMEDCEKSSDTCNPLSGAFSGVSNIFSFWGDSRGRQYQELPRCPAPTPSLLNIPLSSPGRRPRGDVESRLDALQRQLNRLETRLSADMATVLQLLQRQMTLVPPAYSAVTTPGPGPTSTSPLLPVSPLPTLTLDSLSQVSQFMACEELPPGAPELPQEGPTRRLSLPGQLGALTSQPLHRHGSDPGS

This test has as its target human ether-à-go-go-related gene (hERG) potassium channel (human, UniProt Q12809). In words: primary screen, population patch clamp on CHO cells stably expressing hERG.
Consider `Cc1ccsc1C(=O)OCC(=O)c1cc(C)n(CC2CCCO2)c1C` (centres unmarked), for which the “hERG current change (%, negative = inhibition) at 1uM” value was 8.76%.
To `CCn1c(-c2cc(C3CC3)nc3ccccc23)n[nH]c1=S` belongs 15.8%.
With `CCCCn1nc(NC(=O)c2cccs2)c2cc3cc(OC)ccc3nc21` the figure was 9.6%.
Take `CCOC(=O)CSc1nnc(NC(=O)CN2CCCCC2)s1`: the “hERG current change (%, negative = inhibition) at 1uM” value is recorded as 11.9%.
As for `CCCc1cc(=O)[nH]c(SCC(=O)N2CCCC2=O)n1`, the “hERG current change (%, negative = inhibition) at 1uM” value is on record as 15.4%.
With `Cn1c(=O)c2c(nc(N3CCOCC3)n2C)n(C)c1=O` the figure was -1.83%; with `COc1ccc(C(CC(=O)N2CCCCC2)c2c(O)cc(OC)cc2OC)cc1` (centres unmarked), 13.5%.
Take `CC1=CC(C)(C)n2c(O)c(N=N)c3cc(C)cc1c32`: the “hERG current change (%, negative = inhibition) at 1uM” value is 6.62%.
With `CCN(CC(=O)NCc1cccs1)C(=O)CN(C)S(=O)(=O)c1ccc(C)cc1` the figure was 5.94%.
To `COc1ccc2oc(C(=O)OCC(=O)N3CCN(S(=O)(=O)c4ccc(C)cc4)CC3)c(C)c2c1` belongs 16.1%.
With `O=C(Cn1nc2sc3ccccc3n2c(=O)c1=O)c1ccc(Cl)cc1` the figure was 16.3%; with `Cc1cc(C(=O)OCC(=O)N2CCC(c3ccccc3)=N2)ccc1[N+](=O)[O-]`, 11.2%; with `COc1ccc(CCNC(=O)[C@@H]2C[C@H]2c2ccccc2)cc1OC`, 5.21%.
For the compound `O=C1C=C(c2ccc3ccccc3c2)C[C@@H](c2ccc(Cl)cc2)C1`, the “hERG current change (%, negative = inhibition) at 1uM” value is 10%.
For the compound `CCOC(=O)Cn1c(=NC(=O)CSC(C)=O)sc2ccccc21`, the “hERG current change (%, negative = inhibition) at 1uM” value is on record as -14%.
`Cn1cccc1C(=O)OCc1ccc(C(C)(C)C)cc1`: the “hERG current change (%, negative = inhibition) at 1uM” value was determined as 6.82%.
With `O=C(Cc1ccccc1)NCCc1cn2ccsc2n1` the figure was 20.5%.
As for `CC(C)Cc1nnc(NC(=O)CCC(=O)N2CCN(Cc3ccc(F)cc3)CC2)s1`, the “hERG current change (%, negative = inhibition) at 1uM” value is given as 10%.
With `O=C(COc1ccccc1Cl)NC(=S)Nc1ccc(CN2CCOCC2)cc1` the figure was 15.7%; with `COc1ccc(NC(=O)NC(C(F)(F)F)C(F)(F)F)cc1`, 16.6%; with `CCn1c(SCC(=O)OC)nc2sc3c(c2c1=O)CCC3`, -0.13%.
With `CN1CCN(CCCc2c3c(cc4c2CCC4)CCC3)CC1.Cl` the figure was 7.12%; with `COc1cccc(C(=O)N2CCN(C(=O)C3CCCO3)CC2)c1` (centres unmarked), 17.1%; with `NC(=O)Cn1cnc2c(nnn2-c2ccc(F)cc2)c1=O`, 5.43%.
In the case of `CCN(c1ccccc1)S(=O)(=O)c1ccc(F)cc1C`, the “hERG current change (%, negative = inhibition) at 1uM” value was -0.512%.
To `COc1ccc(/C=N/NC(=O)c2ccncc2)cc1Cn1nc([N+](=O)[O-])c(Br)c1C` belongs 9.33%.
`CN1CCN(/N=C/c2ccc(Br)cc2)CC1.Cl`: the “hERG current change (%, negative = inhibition) at 1uM” value was found to be 0.327%.
For the compound `CC(C)[C@H](NC(=O)C1CCN(S(=O)(=O)c2ccccc2)CC1)C(=O)NCc1ccccc1`, the “hERG current change (%, negative = inhibition) at 1uM” value is given as 14.4%.
As to `COc1cc(CN2CCNC(=O)C2CC(=O)NC2CCCC2)cc(OC)c1` (centres unmarked), the “hERG current change (%, negative = inhibition) at 1uM” value is recorded as -11.2%.
As to `COc1ccc(C(=O)NC(=S)NCc2cccnc2)cc1Cl`, the “hERG current change (%, negative = inhibition) at 1uM” value is recorded as 14%.
On to `O=C(O)c1ccc(CN(c2ccccn2)S(=O)(=O)c2ccccc2)cc1`, for which the “hERG current change (%, negative = inhibition) at 1uM” value was determined as 20%.
On to `CCC(=O)Nc1nc(-c2ccc3c(c2)CC(C)N3S(C)(=O)=O)cs1` (centres unmarked), for which the “hERG current change (%, negative = inhibition) at 1uM” value was 8.47%.
As to `O=C(/C=C/c1ccco1)NC(=S)Nc1ccccc1Br`, the “hERG current change (%, negative = inhibition) at 1uM” value is on record as 18.2%.
Take `CC(OC(=O)/C=C/c1ccc(Br)cc1)C(=O)N1CCOCC1` (centres unmarked): the “hERG current change (%, negative = inhibition) at 1uM” value was determined as 12.9%.
To `CCOC(=O)c1ccc(NC(=O)c2cn(CCC#N)nc2-c2ccc3c(c2)OCCO3)cc1` belongs -0.0387%.
With `CCOc1ccc(/C=C/C(=O)NC2CCCCC2)cc1`, the “hERG current change (%, negative = inhibition) at 1uM” value is 6.98%.
With `Cc1c(C(=O)NC2CCCc3ccccc32)oc2ccc(S(=O)(=O)N3CCCC3)cc12` (centres unmarked) the figure was 17.2%; with `CCCCN(Cc1ccccc1)S(=O)(=O)c1c(N)n(C)c(=O)n(C)c1=O`, 7.36%.
Regarding `CS(=O)(=O)N1N=C(c2ccco2)CC1c1ccccc1` (centres unmarked), the “hERG current change (%, negative = inhibition) at 1uM” value is reported as 12.5%.
To `Cc1ccccc1CNC(=O)Cc1ccccc1[N+](=O)[O-]` belongs 0.014%; to `CNC(=S)NNC(=O)Cc1ccccc1`, -2.43%; to `Cc1cc(C(F)(F)F)n(-c2nc(C(=O)N/N=C/c3ccc(F)cc3)cs2)n1`, -0.351%.
To `Cc1ccc(NCCNc2ccc(C)cc2)cc1` belongs 2.52%; to `CCOc1ccc(-n2cnnn2)cc1S(=O)(=O)N1CCCCC1`, 7.17%; to `O=C1COc2ccc(C(=O)COC(=O)C3CC(O)CN3S(=O)(=O)c3ccc(Cl)cc3)cc2N1` (centres unmarked), 8.6%.
Take `CCOc1cc(CNc2ccc(Br)cc2)cc(Br)c1OCC(=O)NC(C)(C)C`: the “hERG current change (%, negative = inhibition) at 1uM” value was found to be 7.31%.
To `O=C(CSc1ncnc2c(-c3ccc(Cl)cc3)nsc12)c1ccccc1` belongs 7.86%; to `CCN(C(=O)Cc1cccs1)c1nnc(-c2cc(OC)c(OC)c(OC)c2)s1`, 7.74%; to `O=S(=O)(Nc1nc2ccccc2[nH]1)c1ccccc1`, -3.92%.
With `CC(C)CCOP(=O)(c1ccc(N(C)C)cc1)C(O)c1ccccc1` (centres unmarked) the figure was 17.5%.
To `CC1CCc2c(sc3nc(C(C)(C)C)nc(N4CCN(C(=O)CCl)CC4)c23)C1` (centres unmarked) belongs 9.24%.
For `C=CCNC(=S)Nc1ccc2cn[nH]c2c1`, the “hERG current change (%, negative = inhibition) at 1uM” value was found to be 1.68%.
With `CC(C)CCn1c(=O)c2ccccc2n2c(CN(C)Cc3ccccc3)nnc12` the figure was -6.25%; with `Cc1c(C(=O)N(Cc2ccccc2)Cc2cccs2)cnn1-c1ccc(Cl)cc1`, 14%.
For `CC(=O)C1=C(O)C(=O)N(c2ccc(S(N)(=O)=O)cc2)C1c1ccccc1F` (centres unmarked), the “hERG current change (%, negative = inhibition) at 1uM” value is on record as 11.4%.
With `COc1cc(S(=O)(=O)NCCCn2ccnc2)ccc1Cl` the figure was 25.5%; with `O=C(CSc1nnc(CNC(=O)c2ccccc2)o1)NCCc1ccccc1`, 10.3%; with `CCC(CO)NCc1sccc1C` (centres unmarked), 15.3%.
With `COC(=O)C1(C)NC(c2ccc(OC)cc2)C2C(=O)N(c3ccccc3)C(=O)C21` (centres unmarked) the figure was 9.13%; with `CCC(C)NC(=S)Nc1ccccc1OC` (centres unmarked), 1.64%.
For the compound `O=c1ccn(CCCBr)c(=O)[nH]1`, the “hERG current change (%, negative = inhibition) at 1uM” value is given as 19.3%.
For the compound `Cc1ccnc(NC(=O)c2ccc(OCC3CCCO3)cc2)c1` (centres unmarked), the “hERG current change (%, negative = inhibition) at 1uM” value was determined as 1.69%.
With `CCOc1ccccc1C(=O)NC(CO)C(=O)O` (centres unmarked), the “hERG current change (%, negative = inhibition) at 1uM” value is -0.598%.
For `CCCCC(NC(=O)c1cccc(Br)c1)C(=O)O` (centres unmarked), the “hERG current change (%, negative = inhibition) at 1uM” value is recorded as 9.9%.
To `COc1cc(C2C(C#N)=C(N)N(N(C)C)C3=C2C(=O)CCC3)ccc1O` (centres unmarked) belongs 12%; to `Cc1nc(SCC(=O)N2CCCCCC2)[nH]c(=O)c1C`, 18%; to `COc1cnc(-c2ccccc2)nc1Sc1ccccc1`, 20.5%.
To `CN(C(=O)Nc1ccccc1)n1cnc2ccccc2c1=O` belongs 13.8%.
To `CC(=O)CCC(=O)NC1CCCc2c1cnn2-c1ccc(C(C)(C)C)cc1` (centres unmarked) belongs 0.428%; to `C=CCn1c(-c2ccccc2OC)n[nH]c1=S`, 15.3%; to `O=C(CCC(=O)N1CCN(c2ccccn2)CC1)c1ccc(Cl)s1`, 3.83%.
With `N#Cc1c(-c2ccccc2)c(-c2ccccc2)nn(CC(=O)NNC(=O)Nc2ccccc2)c1=O`, the “hERG current change (%, negative = inhibition) at 1uM” value is 21.5%.
To `CCN(CC)S(=O)(=O)c1ccc(/C(O)=C2/C(=O)C(=O)N(CCOC)C2c2ccccc2)cc1` (centres unmarked) belongs 11.6%; to `CC(=O)NCC1=C(NC(C)=O)C2CC1C(C)(C)C2C` (centres unmarked), 12.1%; to `O=C(NCCN1CCOCC1)c1cc(Br)ccc1Cl`, 12.6%.
With `CCOc1ccccc1NC(=O)COc1ccc2ccc(=O)oc2c1` the figure was 15.1%.
With `Nc1[nH]n2c(=O)cc(-c3ccccc3)nc2c1N=Nc1ccc(S(N)(=O)=O)cc1` the figure was 11.4%; with `CCOC(=O)CSc1c(-c2cccs2)[nH]c2ccccc12`, 8.2%; with `Cn1cc(S(=O)(=O)N2CCc3ccccc32)cc1C(=O)NC1CCCCC1`, 11.1%.
Consider `O=C(COC(=O)CCNS(=O)(=O)c1cccs1)Nc1cc(C(F)(F)F)ccc1Cl`, for which the “hERG current change (%, negative = inhibition) at 1uM” value was 1.42%.
To `COc1ccc(S(=O)(=O)NCC(=O)O)cc1C(=O)NC1CCCCC1` belongs 29%; to `COc1ccc(O)c(/C=N/NC(=O)c2ccc(N3CCCC3=O)cc2)c1`, 4.17%; to `CCOc1ccc2nc(N(CCCN(C)C)C(=O)c3ccc(S(=O)(=O)N4CCCC4)cc3)sc2c1.Cl`, -18.3%.
With `CC1CCC2(CC1)NC(=O)N(CC(=O)Nc1ccc(N3CCOCC3)cc1)C2=O` (centres unmarked), the “hERG current change (%, negative = inhibition) at 1uM” value was determined as 7.74%.
To `O=C(N=C1SC2CS(=O)(=O)CC2N1c1cccc(F)c1)C1CC1` (centres unmarked) belongs 10%; to `CCCCn1cc([N+](=O)[O-])nc1C`, 14.3%; to `CN(C)C=NCCn1c(N2CCOCC2)nc2c1c(=O)n(C)c(=O)n2C.Cl`, 5.64%.
With `CCOC(=O)C1=C(N)N(c2ccccc2)C2=C(C(=O)CCC2)C1c1cccnc1` (centres unmarked) the figure was 2.28%; with `CC(O)C(NC=C1C(=O)OC(C)(C)OC1=O)C(=O)O` (centres unmarked), 12.4%.
To `O=C(CN1CCN(S(=O)(=O)c2ccccc2)CC1)Nc1ccc2c(c1)OCO2` belongs 1.86%.
In the case of `COC(=O)CN(C#N)c1nc(OC)nc(N(C)C)n1`, the “hERG current change (%, negative = inhibition) at 1uM” value came to 4.04%.
`Cc1ccc(-c2onc(C)c2C)cc1S(=O)(=O)N1CCOc2ccccc21`: the “hERG current change (%, negative = inhibition) at 1uM” value was 11.9%.
